# PubChem BioAssay AID463173 (ICCB-Longwood Screening Facility, Harvard Medical School, 2010)
# The whole screen tested about 52,000 compounds, of which about 4,300 (8.3%) were called active. No stated cut-off is given here; in the data, active means survival mostly below about 52% (no sharp cut-off); inactive means mostly above about 56%. Some of the results follow.
# Test system: DeltatarO mutant
# Test: S. aureus survival, RN4220 and DeltatarO strains – OD600, teichoic acid synthesis inhibitors, primary screen (AID 463173)
# Conditions: S. aureus RN4220 wild type/DeltatarO growth, OD600, 18 h, stronger effect = lower value, screened at 18.75 µg/mL (by protocol)
row,SMILES,survival
1,O=C(NCc1ccccc1Cl)c1ccc(-n2cnc3cccnc32)cc1,inactive: 71%
2,CCOc1ccccc1NC(=O)Cn1nc(N2CCN(c3ccccc3)CC2)ccc1=O,inactive: 82%
3,Cn1c(/C(C#N)=C/c2ccc(C(F)(F)F)cc2)nc2ccccc21,inactive: 103%
4,Cc1ccc(CNC(=O)CSCc2nc(-c3cccc(C)c3)oc2C)cc1,active: -5%
5,CCC(NC(=O)Nc1cccc(C)c1)c1c(-n2cccc2)sc2c1CCN(C)C2 (stereo not given),inactive: 95%
6,O=C(CCC1N=C2c3ccccc3N=C(SCC(=O)NCCc3ccccc3)N2C1=O)NCc1ccc(F)cc1 (stereo not given),inactive: 57%
7,Cc1ccc(C)c(OC(=O)CSc2nnc(-c3cccs3)o2)c1,inactive: 75%
8,COc1ccc2c(c1)CC(C(=O)NCCc1ccc(S(N)(=O)=O)cc1)CO2 (stereo not given),inactive: 79%
9,CCCC(=O)Nc1cc(-c2nnc3c4ccccc4c(C)nn23)ccc1C,inactive: 82%
10,COc1cc2ccccc2cc1C(=O)N1CCN(c2nc3c(F)cc(F)cc3s2)CC1,inactive: 128%
11,CCOC(=O)C1CCN(C(=O)CSc2n[nH]c(-c3ccc(OC)cc3)n2)CC1,inactive: 124%
12,COc1ccccc1N1CCN(C(=O)c2cc3c(-c4ccccc4F)nn(C)c3s2)CC1,active: 46%
13,Cn1c(=O)n(C)c2cc(N3CCOCC3)c(NS(=O)(=O)c3ccc(Cl)cc3)cc21,inactive: 75%
14,CCOC(=O)Cn1c(CN2CCN(c3ccc(OC)cc3)CC2)nc2c1c(=O)[nH]c(=O)n2C,inactive: 90%
15,COc1ccc(CCNC(=O)Cn2c(-c3ccc(F)cc3)cc(C(C)=O)c2C)cc1OC,inactive: 68%
16,CCOc1ccccc1NC(=O)CSc1ccc2nc(-c3ccccc3)cn2n1,inactive: 94%
17,COC(=O)c1ccccc1NC(=O)Cn1c(=O)n(CCCC(=O)NCc2ccccc2Cl)c(=O)c2ccccc21,inactive: 69%
18,O=C(Cn1cnc2c(nc3n2CCCCC3)c1=O)Nc1cccc(C(F)(F)F)c1,inactive: 83%
19,CCOc1ccc(/C=C/c2nc(C#N)c(NCCCN(C)C)o2)cc1,inactive: 93%
20,O=C(COc1ccccc1Cl)N(Cc1cccc(F)c1)C1CCS(=O)(=O)C1 (stereo not given),inactive: 77%
21,CCOc1ccc(/C=N/n2nnnc2N)cc1OCC,inactive: 75%
22,CCOc1ccc(CNC(=O)C2CCCN(c3nn4cc(-c5ccc(F)cc5)nc4s3)C2)cc1 (stereo not given),inactive: 67%
23,COc1ccc(N2CCN(CCCNC(=O)c3ccc4nc(Cc5ccccc5)oc4c3)CC2)cc1,inactive: 93%
24,COc1ccc(-n2c(=O)c3c(c4cc(OC)ccc4n3C)n(CC(=O)N3CCCC3)c2=O)cc1,inactive: 102%
25,CCc1ccc(NC(=O)CCCc2nnc3n(CCCOC)c(=O)c4sccc4n23)cc1,inactive: 85%
26,Cc1ccc(NC(=O)C(C)Sc2nc3c(c(=O)[nH]2)CCCC3)cc1Cl (stereo not given),inactive: 56%
27,CSc1cccc(NC(=O)CN2C(=O)CCc3cc(S(=O)(=O)N4CCCCC4)ccc32)c1,inactive: 58%
28,CC1CCN(C(=O)CSc2nnc(NC(=O)Nc3ccccc3)s2)CC1,inactive: 73%

row,SMILES,survival
1,COC(=O)c1ccccc1NC(=O)Cn1c(CCC(=O)O)ccc1-c1ccc(C)cc1,active: 45%
2,Cc1ccc2c(c1)N(C(=O)CCC(=O)NCc1cccs1)CC(C)O2 (stereo not given),inactive: 62%
3,CCOC(=O)C1CCN(C(=O)Cn2ncc3c4ccccc4n(Cc4ccccc4)c3c2=O)CC1,inactive: 81%
4,Cc1cccc(CC(=O)Nc2c(C(=O)Nc3cccc(F)c3)oc3ccccc23)c1,inactive: 57%
5,CCOC(=O)c1c(NC(=O)COc2ccc(C(C)(C)C)cc2)sc2c1CCCC2,inactive: 75%
6,Cc1ccc(NC(=O)c2c(C)nn(-c3ccccc3)c2-n2cccc2)c(Cl)c1,inactive: 79%
7,Cc1ccc(N2C(=O)CCSC23C(=O)N(Cc2ccc(F)cc2)c2ccccc23)cc1 (stereo not given),inactive: 90%
8,CCOc1cccc(C(=O)N(Cc2ccc(F)cc2)Cc2ccco2)c1,inactive: 51%
9,O=C1CC(c2ccc(F)cc2F)c2cc3c(cc2N1)OCO3 (stereo not given),inactive: 140%
10,COc1ccc(Cl)cc1NC(=O)C1CCN(S(=O)(=O)c2ccc(F)cc2)CC1,active: 43%
11,COc1ccc(OC)c(NC(=O)Cn2c(=O)n(-c3ccc(Cl)cc3)c(=O)c3c(C)c(C)sc32)c1,inactive: 90%
12,Cc1ccc(N2C(=O)CS(=O)(=O)C23C(=O)N(Cc2ccc(Cl)cc2)c2ccccc23)cc1C (stereo not given),inactive: 69%
13,COCCn1c(SCC(=O)c2ccc(F)cc2)nc2cc(C(=O)NC3CCCC3)ccc2c1=O,inactive: 94%
14,Cc1ccc2nc(CN3CCN(S(=O)(=O)c4ccc(C)c(C)c4)CC3)oc2c1,inactive: 87%
15,O=C(Nc1ccc2oc(-c3ccc4ccccc4c3)nc2c1)c1cc(Cl)ccc1Cl,inactive: 86%
16,Cc1ccc(C2CC(=O)n3nc(-c4cccc(C)c4)nc3S2)cc1 (stereo not given),inactive: 97%
17,COc1cc(-c2ccno2)ccc1S(=O)(=O)N1CCN(c2ccccc2)CC1,inactive: 72%
18,CC(C)C(=O)Nc1nnc(SCc2cc(=O)n3ccccc3n2)s1,inactive: 86%
19,CN(C)c1ccc(CNC(=O)C2CCN(S(=O)(=O)c3ccc4[nH]c(=O)ccc4c3)CC2)cc1,inactive: 101%
20,Cc1ccc(NC(=O)CCSc2nc(-c3ccc4c(c3)OCO4)cc(C(F)(F)F)n2)c(C)c1,inactive: 66%
21,CCOc1ccccc1C(=O)NCc1ccc2c(c1)CCN2C(=O)c1ccccc1,inactive: 72%
22,Cc1cc(C)c2oc(-c3cccc(NC(=O)COc4ccccc4Cl)c3C)nc2c1,active: 42%
23,Cc1cccc(Nc2nc3c(S(=O)(=O)c4ccc(Br)cc4)nnn3c3ccsc23)c1C,inactive: 44%
24,Cc1cc(NC(=O)CSc2ncc(C(=O)Nc3ccc(C)c(C)c3)c(=O)n2C)no1,inactive: 99%
25,CC1=C(C(=O)Nc2cccnc2)C(c2ccccc2Cl)n2nc(-c3ccccc3)nc2N1 (stereo not given),inactive: 74%
26,COc1cccc(-c2nc3c(C#N)c[nH]n3c2NC2CCC(C)CC2)c1 (stereo not given),active: 29%
27,COc1ccc(CCNC(=O)c2ccc(Cn3c(SCC(=O)NCCC(C)C)nc4cc5c(cc4c3=O)OCO5)cc2)cc1OC,inactive: 120%
